Reference: PubChem BioAssay AID1963576 (National Center for Advancing Translational Sciences (NCATS), 2024)
Out of some 46,000 compounds screened, about 60 (0.1%) were called active. Not shown: some 3% with an inconclusive outcome. Calls come from the whole dose curve; as a rule, active = well fitted inhibition curve with a large enough effect; inconclusive = small, poorly fitted or top-dose-only effect; inactive = no such curve, though single readings can be large or run the other way. Some of the results follow.

assay: Primary qHTS assay for Inhibitors of ovarian cancer metastasis using an organotypic tumor microenvironment (TME) model.; note: nearly all actives have a fitted effect of over 65% in size;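 for activity change, negative = inhibition: plate controls were DMSO wells for no effect and tomatine positive control wells for full effect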; details: SKOV3ip1-GFP adhesion/invasion on 3D omental model, fluorescence; series mostly up to 45.8 µM; activity change, negative = inhibition: at the top concentration
How it was run: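 qHTS, 4-pt dose (0.36-46 umol/L); SKOV3ip1-GFP, 1,200 cells/well, no FBS; primary omental fibroblast/mesothelial co-culture 48 h pre-grown; 2 h RT + 16 h 37 C; PBS wash, 4% PFA; GFP count 488/509 nm.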

Activity change, negative = inhibition, inactive:
CCC1Oc2ccccc2N(CC(=O)NCc2cc(OC)ccc2OC)C1=O (stereo unspecified) -1.53%, O=C(CSc1nc(-c2ccccc2F)nc2cc(=O)[nH]n12)Nc1cccc(C(F)(F)F)c1 -2.29%, Cc1ccc(OCC(=O)Nc2ccc(S(=O)(=O)Nc3cc(C)on3)cc2)c(Br)c1 -3.12%, COc1ccc(C(CC(=O)NCc2ccc(Cl)cc2)N2Cc3ccccc3C2=O)cc1OC (stereo unspecified) -10.6%, COc1cc(C)ccc1OCCSc1nnc(-c2ccc(C)cc2)o1 -1.91%, Cc1ccc(C(=O)c2oc3ccccc3c2NC(=O)Cc2coc3c(C)c(C)ccc23)cc1 3.72%, COc1ccc(-c2nc3ccccc3n2Cc2ccc(Cl)cc2)cc1 1.25%, O=C(OCc1cc(=O)n2c3c(sc2n1)CCCC3)c1cccc(NC(=O)c2ccccc2F)c1 -1.69%, CCOc1ccc(NC(=O)CSC2=Nc3ccccc3C3=NC(CC(=O)NCc4ccc5c(c4)OCO5)C(=O)N23)cc1 (stereo unspecified) -6.39%, O=C(NCc1ccccc1Cl)c1ccc(NC(=O)N2CCCCc3ccccc32)cc1 -0.432%, Cc1cc(Br)ccc1NC(=O)C1(S(=O)(=O)c2ccc(Cl)cc2)CC1 1.14%, COc1ccccc1C(=O)Nc1ccc(-c2nc3ccccc3s2)c(C)c1 -14.3%, CC1CCCCN1CC(=O)N1CCCc2c1c(=O)oc1ccc(OCc3ccccc3)cc21 (stereo unspecified) 1.88%, O=C(NCCS(=O)(=O)N1CCN(c2ccccc2)CC1)C1CC(=O)N(c2ccccc2)C1 (stereo unspecified) -0.256%, Cc1cccc(NC(=O)CN(C)S(=O)(=O)c2ccc3c(c2)c(=O)n(C)c(=O)n3C)c1 7.08%, Cc1ccc(-c2cc(C(=O)N(Cc3ccccc3)Cc3ccco3)no2)cc1F 18.3%, COc1ccccc1C(=O)Nc1nnc(S(=O)(=O)N2CCCCCC2)s1 -13.5%, CCOc1ccccc1C(=O)Nc1ccc(S(=O)(=O)N2CCCCC2c2cccnc2)cc1 (stereo unspecified) -8.48%, Cc1ccc(-c2ccc(=O)n(CC(=O)Nc3ccc(F)c(Cl)c3)n2)cc1C -0.65%, COc1ccc(C)c2sc(N(Cc3cccnc3)C(=O)CCc3ccccc3)nc12 4.96%, CC(=O)Nc1ccc(S(=O)(=O)NC2(C(F)(F)F)NC(=O)N(c3ccc(Cl)cc3)C2=O)cc1 (stereo unspecified) 4.44%, COc1ccc(C(=O)N2CCc3cc(OC)c(OC)cc3C2COc2ccccc2OC)cc1 (stereo unspecified) 46.2%, CCCCN(CC)C(=O)Nc1ccc2c(c1)N(C)C(=O)c1ccccc1S2 -8.27%, Cc1ccc(C(=O)COC(=O)c2cc(-c3ccc(Cl)cc3)nc3ccccc23)cc1 7.23%, CCc1nnc(SCC(=O)Nc2cc(Cl)c(OC)cc2OC)c2cc3oc(C)cc3n12 7.81%, Cn1cc(S(=O)(=O)c2ccccc2)c(=O)c2cc(F)c(N3CCCCC3)cc21 -4.34%, Cc1noc2nc(C(=O)O)nc(N3CCCCC3)c12 -4.81%, COc1ccc(OC)c(-c2noc(CSc3nnc(Cc4ccccc4)n3-c3cccc(C)c3)n2)c1 -9.29%, CC1CCC(NC(=O)Cn2ncc3c4ccccc4n(Cc4ccc(Cl)cc4)c3c2=O)CC1 (stereo unspecified) -4.66%, CC(C)CCNC(=O)CSCc1cnn(-c2ccccc2)c1-n1cccc1 -4.1%, CCc1nc(SCC(=O)Nc2ccc(NC(C)=O)cc2)n[nH]1 -5.02%, Cc1ccc(-n2c(=O)c3ccc(C(=O)NCc4ccco4)cc3n(Cc3cccc(Cl)c3)c2=O)cc1 -4.79%, O=C(Nc1ccc(Cl)c(Cl)c1)N1CCC(c2ccccc2)C1 (stereo unspecified) -12.4%, COc1ccc(NC(=O)Cn2c(=O)n(Cc3nc(-c4ccccc4)no3)c(=O)c3cc4c(cc32)OCO4)cc1Cl -4.44%, CCc1ccc(NC(=O)CC2C(=O)N(c3ccccc3)C(=O)N2C(C)C)cc1 (stereo unspecified) 3.01%, COC(=O)c1ccccc1NC(=O)Cc1noc2ccc(C)cc12 -1.49%, Cc1ccc2oc(-c3ccc(Cl)c(NC(=O)c4ccc(-c5ccccc5[N+](=O)[O-])o4)c3)nc2c1 56.2%, CCc1ccccc1NC(=O)Cn1nnc(C(=O)Nc2ccc(C)c(F)c2)c1N -5.92%, Cc1cccc(NC(=O)Cn2cc(C(=O)c3ccco3)c3ccccc32)c1C -6.49%, Cc1nn(CC(=O)NCc2ccc(OC(C)C)cc2)c(=O)c2c(C)n(-c3ccc(Cl)cc3)nc12 -13.2%, COc1ccc(CNc2ncnc3c2nnn3C)cc1 -8.01%, COc1ccc2c(c1)-c1nc(NC(=O)c3ccc(Cl)cc3)sc1CC2 -31.2%, CCCCCOc1ccc(C2c3c(oc4ccccc4c3=O)C(=O)N2c2nc(C)c(C)s2)cc1OCC (stereo unspecified) 1.39%, CSc1ccc(CCNC(=O)Cn2ncc3c(=O)oc4ccc(C)cc4c32)cc1 -3.56%, O=C(CSc1nc2c([nH]c3ccccc32)c(=O)n1-c1ccccc1)N1CCCC1 -11.4%

outcome, inactive:
Cc1cc(C)cc(OCCCn2c(-c3ccc(Cl)cc3)nc3ccccc3c2=O)c1, CCOc1ccccc1-c1nc(Cn2c(=O)cc(C)c3c(C)nn(-c4ccccc4)c32)c(C)o1, Cc1ccc(S(=O)(=O)c2c(Nc3cccc(Cl)c3)sc(C(=O)c3ccc4c(c3)OCO4)c2N)cc1, COc1ccc(-c2nc(CNS(=O)(=O)c3ccc(C)cc3)cs2)cc1, COc1cccc(NC(=O)CSC2=Nc3ccccc3C3=NC(CCC(=O)NCc4ccco4)C(=O)N23)c1 (stereo unspecified), CCOc1ccc(CCNc2nc3c(-c4ccc(C)cc4)nnn3c3ccccc23)cc1OCC, CCCn1c(=O)c2sccc2n2c(CCCC(=O)Nc3ccc(C)c(F)c3)nnc12, COC(=O)c1c(C)sc(-c2c(-c3cccc(OC)c3)[nH]c3c2c(=O)[nH]c(=O)n3C)c1O, COc1ccc(-c2noc(CN3CCN(c4ccccc4OC)CC3)n2)cc1OC, COc1cccc(N2CC(NC(=O)COc3ccc4ccccc4c3)CC2=O)c1 (stereo unspecified), CC(=O)c1ccc(NC(=O)CCn2nc(C)c(S(=O)(=O)N3CCC(C)CC3)c2C)cc1, O=C(Nc1ccc(F)cc1F)c1noc2c1CCc1ccccc1-2, CC(C)c1cnc2c(c1SCc1cccc(C(F)(F)F)c1)c(=O)n(C)c(=O)n2C, COc1ccc(Br)cc1CNC(=O)CN1CCSc2ccccc21, COc1ccc(CN2C(=O)C(NC(=O)c3ccccc3C)(C(F)(F)F)N=C2c2ccccc2)cc1 (stereo unspecified), COc1ccccc1CCNc1ncnc2c1nnn2C
